# Laboratory results as given in PubChem BioAssay AID485294 (National Center for Advancing Translational Sciences (NCATS), 2010).
# Among all 370,000 compounds or so, about 150 (0.041%) were called active. The shares of active, inactive and inconclusive entries below differ from those in the screen. Calls follow the shape of the dose curve; as a rule, active = well fitted inhibition curve with a large enough effect; inconclusive = small, poorly fitted or top-dose-only effect; inactive = flat fitted curve, though single readings scatter. Potencies of inconclusive entries are left out as doubtful fits.
# Molecular target: Beta-lactamase (Escherichia coli (strain K12)) (UniProt P00811)
# Sequence of UniProt P00811 (P00811 whole entry, looked up): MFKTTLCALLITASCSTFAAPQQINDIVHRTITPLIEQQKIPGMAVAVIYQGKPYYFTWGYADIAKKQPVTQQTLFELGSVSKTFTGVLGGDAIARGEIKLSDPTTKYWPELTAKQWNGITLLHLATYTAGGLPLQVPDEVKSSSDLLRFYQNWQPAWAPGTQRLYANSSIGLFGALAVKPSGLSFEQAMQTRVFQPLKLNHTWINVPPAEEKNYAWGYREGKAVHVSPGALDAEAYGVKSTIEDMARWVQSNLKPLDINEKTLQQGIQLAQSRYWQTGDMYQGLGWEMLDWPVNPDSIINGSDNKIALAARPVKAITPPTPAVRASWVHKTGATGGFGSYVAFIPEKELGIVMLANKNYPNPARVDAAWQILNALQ
# Test: qHTS Inhibitors of AmpC Beta-Lactamase (assay with detergent); also: nearly all actives have a fitted effect of over 25% in size;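 as to activity change, negative = inhibition: 0% = no-compound wells and -100% = no-enzyme wells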
# Conditions: AmpC hydrolysis of nitrocefin, absorbance 480 nm, 0.01% Triton; activity change, negative = inhibition: at 114 µM (top of the series)
# Outline: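 AmpC (5.3 nM in the dispensed reagent) in 20 mM phosphate pH 7.0 with 0.01% (detergent screen) or 0.0001% Triton X-100 was preincubated with compounds for 15 min at room temperature. Nitrocefin was then added from an 800 uM solution, and hydrolysis was followed at 480 nm.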
# Potency is read from the fitted curve at half-maximal effect; tags tell the direction and shape of the fitted curve.
SMILES,"activity change, negative = inhibition",Potency
Oc1ccc(/C=C/c2nc(-c3ccccc3O)n(-c3ccccc3)n2)cc1,inactive: -4.89%,
COc1ccc(Cn2c(NCC(C)C)nc3c2c(=O)n(C)c(=O)n3C)cc1,inactive: 2.3%,
O=S(=O)(Nc1nc2ccccc2nc1N1CCc2ccccc2C1)c1ccc(Br)cc1,,"inconclusive [inhibitor, full curve]"
Cc1ccc(NS(=O)(=O)c2ccc3c(c2)CC(=O)N3)cc1F,,"inconclusive [inhibitor, full curve, poor fit]"
Cc1ccc2c(c1)nc(NCCO)n2C,,"inconclusive [inhibitor, full curve, poor fit]"
O=C1OCc2ccc(NC(=O)c3ccccc3C(=O)O)cc21,inactive: 4.11%,
Cc1cc(C)c(O)c(-c2n[nH]c3c2C(c2cccc(O)c2)N(Cc2ccco2)C3=O)c1 (stereo not drawn),inactive: 1.92%,
COc1cccc(NC(=O)CN(C)C(C)C(=O)N2CCCC2)c1 (stereo not drawn),,"inconclusive [inhibitor, full curve, poor fit]"
CCC1(C)Cc2c(sc3nnn(CC(=O)Nc4ccc(C)cc4)c(=O)c23)CO1 (stereo not drawn),,"inconclusive [inhibitor, full curve]"
CN1C(=O)N(C)C(=O)C2(Cc3c(ccc4ccccc34)N(C)C2)C1=O,inactive: -7%,
CC(NC(=O)C12CC3CC(CC(C3)C1)C2)c1ccc(F)cc1 (stereo not drawn),,"inconclusive [inhibitor, partial curve]"
O=C(NCc1ccccc1)c1c[nH]c2cc3c(cc2c1=O)OCCO3,inactive: 0.174%,
Cc1cccc(OC(C)c2ccnc3nc(/N=C/N(C)C)nn23)c1 (stereo not drawn),,"inconclusive [inhibitor, partial curve, poor fit]"
O=C(Cc1ccccc1)Nc1cccc(N2CCCC2)c1,inactive: 6.8%,
CCn1cnc2cc(NCc3ccncc3)ccc21,,"inconclusive [inhibitor, full curve]"
Cc1ccc(-c2cc(-c3ccccc3)cc(-c3ccccc3)[n+]2-c2ccccc2C(=O)O)cc1,,"inconclusive [inhibitor, single point]"
O=C(COC(=O)CCc1nc2ccccc2c(=O)[nH]1)Nc1ccc(OC(F)(F)F)cc1,,"inconclusive [inhibitor, full curve, poor fit]"
C/C(N)=C(/C#N)C(=O)COC(=O)c1cc(-c2cccc(Br)c2)nc2ccccc12,,"inconclusive [inhibitor, full curve, poor fit]"
COc1cccc(CNS(=O)(=O)c2c(C)nc3sccn3c2=O)c1,,"inconclusive [inhibitor, single point]"
COC(=O)c1cn(C(=O)c2ccco2)c2ccccc12,,"inconclusive [inhibitor, full curve, poor fit]"
CCN(CC)c1ccc(NC2=C(Cl)C(=O)c3ccccc3C2=O)cc1,,"inconclusive [inhibitor, single point]"
O=C(COC(=O)c1ccc(Cl)c(S(=O)(=O)N2CCOCC2)c1)NCc1ccco1,,"inconclusive [inhibitor, single point]"

SMILES,"activity change, negative = inhibition",Potency
O=C(O)CC1=C(c2ccc(F)cc2)CCC1=O,,"inconclusive [inhibitor, partial curve]"
CCc1ccccc1NS(=O)(=O)c1ccc2[nH]cc(C(=O)NC3CCCC3)c(=O)c2c1,,"inconclusive [inhibitor, full curve, poor fit]"
O=C(Nc1ccc(OCc2cc(=O)n3c4c(sc3n2)CCCC4)cc1)c1ccc(F)cc1,inactive: 7.48%,
COc1cc(C2NC(=O)NC(C)=C2C(=O)OCc2ccccc2)ccc1O (stereo not drawn),,"inconclusive [inhibitor, full curve, poor fit]"
O=C(Nc1ccc(F)cc1)Nc1cccnc1,inactive: -11.3%,
COc1ccc(C(=O)Nc2ccccc2C(=O)Nc2cc(C)ccn2)cc1,,"inconclusive [inhibitor, partial curve]"
CSc1ccc(S(=O)(=O)Nc2ccc(F)cc2)cc1,,"inconclusive [inhibitor, full curve]"
CCOC(=O)C1CCN(S(=O)(=O)c2ccc(CC)cc2)CC1,,"inconclusive [inhibitor, full curve, poor fit]"
CCN(c1ccccc1)S(=O)(=O)c1ccc(N)cc1,,"inconclusive [inhibitor, full curve, poor fit]"
COc1ccc(OC)c(NS(=O)(=O)c2ccc(SC)cc2)c1,,"inconclusive [inhibitor, partial curve]"
O=C(CN1C(=O)NC(Cc2ccccc2)C1=O)Nc1ccc(F)cc1 (stereo not drawn),,"inconclusive [inhibitor, partial curve, poor fit]"
CCC(C)NC(=O)c1c(N)n(/N=C/c2cccnc2)c2nc3ccccc3nc12 (stereo not drawn),,"inconclusive [inhibitor, full curve, poor fit]"
COc1ccc(C(CNc2ccc(S(C)(=O)=O)cc2[N+](=O)[O-])N(C)C)cc1OC (stereo not drawn),,"inconclusive [inhibitor, partial curve, poor fit]"
O=[N+]([O-])c1cc2c(cc1/C=N/n1c(-c3ccccn3)n[nH]c1=S)OCO2,inactive: -0.527%,
Cc1ccc(CNC(=S)Nc2ccc(C)c([N+](=O)[O-])c2)cc1,inactive: 10.1%,
Cc1ccc(CSc2nc3ccc(NC(=O)CC(C)C)cc3s2)cc1,inactive: -1.11%,
COc1ccccc1NC(=O)CSc1nnc(Cc2cc(=O)[nH]c(=O)[nH]2)n1-c1ccccc1,,"inconclusive [inhibitor, full curve, poor fit]"
CCC(C)n1c(SCc2ccc(F)cc2Cl)nc2ccsc2c1=O (stereo not drawn),inactive: 10.9%,
O=C1CC(c2ccco2)Cc2nc(Nc3ccc(F)cc3)ncc21 (stereo not drawn),,"inconclusive [inhibitor, full curve, poor fit]"
Cc1cc(C)nc(SCCC(=O)Nc2ccccc2C)n1,,"inconclusive [inhibitor, partial curve, poor fit]"
CCOC(=O)C1=C(O)/C(=C\c2cccs2)N=C1C,,"inconclusive [inhibitor, full curve, poor fit]"
